Experimental data published in the supplement of paper PMC4996465.
Viability of KB3-1 and Nalm-6 cells after 48 h of drug alone (CellTiter-Glo), 11 doses over about 4.5 log units. % of DMSO wells, lower = more cell loss; AC50 from the fitted curve, lower = more potent. No active / inactive call. Nalm-6 was screened in two runs. AC50 is listed only for well-fitted inhibitory curves. KB3-1 is a HeLa-derived carcinoma line, Nalm-6 a B-cell precursor leukaemia line.

Columns and labels:
[1] = tested on: KB3-1; experiment: viability (% of DMSO control); higher = more viable cells
Protocol: (§1)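 Eleven-dose screen of the NCATS MIPE 3 library on cells without co-treatment; CellTiter-Glo after 48 h, as % of DMSO wells.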

[2] = tested on: Nalm-6; experiment: as above
Protocol: as §1

CN([C@@H](Cc1ccc(OS(=O)(=O)c2cccc3cnccc23)cc1)C(=O)N1CCN(c2ccccc2)CC1)S(=O)(=O)c1cccc2cnccc12 [KN-62]
Details	viability [%]
[1], 0.00078 µM	89.2
[1], 0.00234 µM	91.6
[1], 0.00702 µM	91.7
[1], 0.0211 µM	89.2
[1], 0.0632 µM	87.3
[1], 0.19 µM	95.6
[1], 0.569 µM	89.6
[1], 1.71 µM	97.1
[1], 5.12 µM	97.5
[1], 15.4 µM	94.2
[1], 46.1 µM	85.2
[2], run: 1, 0.00078 µM	91.9
[2], run: 1, 0.00234 µM	103
[2], run: 1, 0.00702 µM	108
[2], run: 1, 0.0211 µM	103
[2], run: 1, 0.0632 µM	97.3
[2], run: 1, 0.19 µM	110
[2], run: 1, 0.569 µM	104
[2], run: 1, 1.71 µM	110
[2], run: 1, 5.12 µM	105
[2], run: 1, 15.4 µM	101
[2], run: 1, 46.1 µM	81.9
[2], run: 2, 0.00078 µM	98.5
[2], run: 2, 0.00234 µM	107
[2], run: 2, 0.00702 µM	103
[2], run: 2, 0.0211 µM	103
[2], run: 2, 0.0632 µM	112
[2], run: 2, 0.19 µM	104
[2], run: 2, 0.569 µM	103
[2], run: 2, 1.71 µM	105
[2], run: 2, 5.12 µM	107
[2], run: 2, 15.4 µM	112
[2], run: 2, 46.1 µM	91.7

CC(=O)Nc1ccc(OC[C@](C)(O)C(=O)Nc2ccc([N+](=O)[O-])c(C(F)(F)F)c2)cc1 [Andarine]
Details	viability [%]
[1], 0.00078 µM	99.3
[1], 0.00234 µM	104
[1], 0.00702 µM	99.2
[1], 0.0211 µM	102
[1], 0.0632 µM	105
[1], 0.19 µM	109
[1], 0.569 µM	105
[1], 1.71 µM	95.4
[1], 5.12 µM	97.7
[1], 15.4 µM	103
[1], 46.1 µM	94.1
[2], run: 1, 0.00078 µM	79.3
[2], run: 1, 0.00234 µM	93
[2], run: 1, 0.00702 µM	102
[2], run: 1, 0.0211 µM	103
[2], run: 1, 0.0632 µM	105
[2], run: 1, 0.19 µM	108
[2], run: 1, 0.569 µM	115
[2], run: 1, 1.71 µM	105
[2], run: 1, 5.12 µM	117
[2], run: 1, 15.4 µM	107
[2], run: 1, 46.1 µM	92.7
[2], run: 2, 0.00078 µM	106
[2], run: 2, 0.00234 µM	109
[2], run: 2, 0.00702 µM	118
[2], run: 2, 0.0211 µM	110
[2], run: 2, 0.0632 µM	108
[2], run: 2, 0.19 µM	114
[2], run: 2, 0.569 µM	110
[2], run: 2, 1.71 µM	112
[2], run: 2, 5.12 µM	112
[2], run: 2, 15.4 µM	109
[2], run: 2, 46.1 µM	99.7

CC(=O)OCCN1C(=O)c2c(C)nc3ccc(S(=O)(=O)N4CCOCC4)cc3c2C1=O [Ivachtin]
Details	viability [%]
[1], 0.00078 µM	106
[1], 0.00234 µM	108
[1], 0.00702 µM	102
[1], 0.0211 µM	105
[1], 0.0632 µM	112
[1], 0.19 µM	111
[1], 0.569 µM	114
[1], 1.71 µM	109
[1], 5.12 µM	104
[1], 15.4 µM	101
[1], 46.1 µM	105
[2], run: 1, 0.00078 µM	118
[2], run: 1, 0.00234 µM	120
[2], run: 1, 0.00702 µM	120
[2], run: 1, 0.0211 µM	118
[2], run: 1, 0.0632 µM	125
[2], run: 1, 0.19 µM	116
[2], run: 1, 0.569 µM	115
[2], run: 1, 1.71 µM	113
[2], run: 1, 5.12 µM	110
[2], run: 1, 15.4 µM	104
[2], run: 1, 46.1 µM	101
[2], run: 2, 0.00078 µM	110
[2], run: 2, 0.00234 µM	114
[2], run: 2, 0.00702 µM	110
[2], run: 2, 0.0211 µM	113
[2], run: 2, 0.0632 µM	109
[2], run: 2, 0.19 µM	113
[2], run: 2, 0.569 µM	105
[2], run: 2, 1.71 µM	106
[2], run: 2, 5.12 µM	104
[2], run: 2, 15.4 µM	104
[2], run: 2, 46.1 µM	107

COc1cc2c(cc1OC)CC(=O)N(CCCN(C)C[C@H]1Cc3cc(OC)c(OC)cc31)CC2.Cl [Ivabradine hydrochloride]
Details	viability [%]
[1], 0.00078 µM	104
[1], 0.00234 µM	109
[1], 0.00702 µM	106
[1], 0.0211 µM	106
[1], 0.0632 µM	109
[1], 0.19 µM	99.7
[1], 0.569 µM	101
[1], 1.71 µM	105
[1], 5.12 µM	101
[1], 15.4 µM	103
[1], 46.1 µM	101
[2], run: 1, 0.00078 µM	82.5
[2], run: 1, 0.00234 µM	95.9
[2], run: 1, 0.00702 µM	106
[2], run: 1, 0.0211 µM	102
[2], run: 1, 0.0632 µM	98.7
[2], run: 1, 0.19 µM	99.9
[2], run: 1, 0.569 µM	95.1
[2], run: 1, 1.71 µM	106
[2], run: 1, 5.12 µM	100
[2], run: 1, 15.4 µM	91.7
[2], run: 1, 46.1 µM	91.4
[2], run: 2, 0.00078 µM	91.4
[2], run: 2, 0.00234 µM	101
[2], run: 2, 0.00702 µM	102
[2], run: 2, 0.0211 µM	93.7
[2], run: 2, 0.0632 µM	101
[2], run: 2, 0.19 µM	97.6
[2], run: 2, 0.569 µM	94
[2], run: 2, 1.71 µM	97.9
[2], run: 2, 5.12 µM	95.7
[2], run: 2, 15.4 µM	92.6
[2], run: 2, 46.1 µM	90.5

CCN(CCO)CCCC(C)Nc1ccnc2cc(Cl)ccc12.O=S(=O)(O)O (centres undefined) [Hydroxychloroquine sulfate]
Details	viability [%]
[1], 0.00078 µM	102
[1], 0.00234 µM	110
[1], 0.00702 µM	98.7
[1], 0.0211 µM	108
[1], 0.0632 µM	103
[1], 0.19 µM	107
[1], 0.569 µM	104
[1], 1.71 µM	107
[1], 5.12 µM	109
[1], 15.4 µM	106
[1], 46.1 µM	106
[2], run: 1, 0.00078 µM	105
[2], run: 1, 0.00234 µM	102
[2], run: 1, 0.00702 µM	101
[2], run: 1, 0.0211 µM	113
[2], run: 1, 0.0632 µM	110
[2], run: 1, 0.19 µM	124
[2], run: 1, 0.569 µM	108
[2], run: 1, 1.71 µM	114
[2], run: 1, 5.12 µM	111
[2], run: 1, 15.4 µM	101
[2], run: 1, 46.1 µM	96.1
[2], run: 2, 0.00078 µM	110
[2], run: 2, 0.00234 µM	103
[2], run: 2, 0.00702 µM	93.1
[2], run: 2, 0.0211 µM	105
[2], run: 2, 0.0632 µM	106
[2], run: 2, 0.19 µM	103
[2], run: 2, 0.569 µM	108
[2], run: 2, 1.71 µM	95.7
[2], run: 2, 5.12 µM	106
[2], run: 2, 15.4 µM	106
[2], run: 2, 46.1 µM	84.4

Cc1c(C)c2c(c(C)c1O)CCC(C)(COc1ccc(CC3SC(=O)NC3=O)cc1)O2 (centres undefined) [Troglitazone]
Details	viability [%]
[1], 0.00078 µM	101
[1], 0.00234 µM	104
[1], 0.00702 µM	104
[1], 0.0211 µM	103
[1], 0.0632 µM	103
[1], 0.19 µM	102
[1], 0.569 µM	101
[1], 1.71 µM	101
[1], 5.12 µM	103
[1], 15.4 µM	93.1
[1], 46.1 µM	62.1
[2], run: 1, 0.00078 µM	104
[2], run: 1, 0.00234 µM	110
[2], run: 1, 0.00702 µM	100
[2], run: 1, 0.0211 µM	107
[2], run: 1, 0.0632 µM	111
[2], run: 1, 0.19 µM	120
[2], run: 1, 0.569 µM	116
[2], run: 1, 1.71 µM	105
[2], run: 1, 5.12 µM	118
[2], run: 1, 15.4 µM	109
[2], run: 1, 46.1 µM	61.9
[2], run: 2, 0.00078 µM	103
[2], run: 2, 0.00234 µM	106
[2], run: 2, 0.00702 µM	104
[2], run: 2, 0.0211 µM	104
[2], run: 2, 0.0632 µM	101
[2], run: 2, 0.19 µM	98.5
[2], run: 2, 0.569 µM	103
[2], run: 2, 1.71 µM	104
[2], run: 2, 5.12 µM	105
[2], run: 2, 15.4 µM	101
[2], run: 2, 46.1 µM	63.8

CCOC(=O)\C1=C\[C@@]2(CC)CCCN3CCC4=C([C@@H]23)[N]1C5=C4C=CC=C5 [Vinpocetine]
Details	viability [%]
[1], 0.000445 µM	95.8
[1], 0.00133 µM	96.3
[1], 0.004 µM	98.9
[1], 0.012 µM	99
[1], 0.036 µM	97
[1], 0.108 µM	99.8
[1], 0.324 µM	96.8
[1], 0.973 µM	95.3
[1], 2.92 µM	101
[1], 8.76 µM	97
[1], 26.3 µM	87.1
[2], run: 1, 0.000445 µM	87.4
[2], run: 1, 0.00133 µM	93.8
[2], run: 1, 0.004 µM	91
[2], run: 1, 0.012 µM	103
[2], run: 1, 0.036 µM	103
[2], run: 1, 0.108 µM	102
[2], run: 1, 0.324 µM	102
[2], run: 1, 0.973 µM	110
[2], run: 1, 2.92 µM	108
[2], run: 1, 8.76 µM	107
[2], run: 1, 26.3 µM	88.2
[2], run: 2, 0.000445 µM	95.3
[2], run: 2, 0.00133 µM	96.2
[2], run: 2, 0.004 µM	97.6
[2], run: 2, 0.012 µM	101
[2], run: 2, 0.036 µM	99.8
[2], run: 2, 0.108 µM	95.3
[2], run: 2, 0.324 µM	108
[2], run: 2, 0.973 µM	101
[2], run: 2, 2.92 µM	98.1
[2], run: 2, 8.76 µM	106
[2], run: 2, 26.3 µM	101

C1Cc2[nH]nc(-c3nn[nH]n3)c2C1 [MK-0354]
Details	viability [%]
[1], 0.00078 µM	102
[1], 0.00234 µM	110
[1], 0.00702 µM	112
[1], 0.0211 µM	110
[1], 0.0632 µM	107
[1], 0.19 µM	105
[1], 0.569 µM	111
[1], 1.71 µM	108
[1], 5.12 µM	106
[1], 15.4 µM	104
[1], 46.1 µM	104
[2], run: 1, 0.00078 µM	110
[2], run: 1, 0.00234 µM	126
[2], run: 1, 0.00702 µM	125
[2], run: 1, 0.0211 µM	121
[2], run: 1, 0.0632 µM	129
[2], run: 1, 0.19 µM	114
[2], run: 1, 0.569 µM	128
[2], run: 1, 1.71 µM	119
[2], run: 1, 5.12 µM	117
[2], run: 1, 15.4 µM	111
[2], run: 1, 46.1 µM	101
[2], run: 2, 0.00078 µM	111
[2], run: 2, 0.00234 µM	116
[2], run: 2, 0.00702 µM	109
[2], run: 2, 0.0211 µM	109
[2], run: 2, 0.0632 µM	111
[2], run: 2, 0.19 µM	106
[2], run: 2, 0.569 µM	111
[2], run: 2, 1.71 µM	104
[2], run: 2, 5.12 µM	108
[2], run: 2, 15.4 µM	104
[2], run: 2, 46.1 µM	106
